Measured values: PubChem BioAssay AID504333 (National Center for Advancing Translational Sciences (NCATS), 2011)
Out of some 360,000 compounds screened, about 16,000 (4.4%) were called active. Inconclusive means that the source gave no clear call. Such entries were picked first, then a sample of the others. Calls follow the shape of the dose curve; as a rule, active = well fitted inhibition curve with a large enough effect; inconclusive = small, poorly fitted or top-dose-only effect; inactive = no such curve, though single readings can be large or run the other way. A potency beside an inconclusive call is a rough fit, not a confirmed value.

The compounds below were run against Bromodomain adjacent to zinc finger domain protein 2B (Homo sapiens) (UniProt Q9UIF8) (assay: qHTS Assay for Inhibitors of BAZ2B). Settings: AlphaScreen BAZ2B-H3K14Ac peptide displacement; series mostly up to 114 µM.
Procedure, shortened: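 AlphaScreen displacement of biotin-H3(5-23)K14Ac peptide (50 nM final) from BAZ2B (50 nM final) in PBS pH 7.4, 0.01% Tween-20; complex preformed 30 min RT, then compounds (top 110 uM) 30 min RT, beads 20 min dark.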
Also: nearly all actives have a fitted effect of over 60% in size.
Potency is read from the fitted curve at half-maximal effect; tags tell the direction and shape of the fitted curve.

UniProt Q9UIF8, sequence (Q9UIF8 whole entry, looked up, the tested form may be a part): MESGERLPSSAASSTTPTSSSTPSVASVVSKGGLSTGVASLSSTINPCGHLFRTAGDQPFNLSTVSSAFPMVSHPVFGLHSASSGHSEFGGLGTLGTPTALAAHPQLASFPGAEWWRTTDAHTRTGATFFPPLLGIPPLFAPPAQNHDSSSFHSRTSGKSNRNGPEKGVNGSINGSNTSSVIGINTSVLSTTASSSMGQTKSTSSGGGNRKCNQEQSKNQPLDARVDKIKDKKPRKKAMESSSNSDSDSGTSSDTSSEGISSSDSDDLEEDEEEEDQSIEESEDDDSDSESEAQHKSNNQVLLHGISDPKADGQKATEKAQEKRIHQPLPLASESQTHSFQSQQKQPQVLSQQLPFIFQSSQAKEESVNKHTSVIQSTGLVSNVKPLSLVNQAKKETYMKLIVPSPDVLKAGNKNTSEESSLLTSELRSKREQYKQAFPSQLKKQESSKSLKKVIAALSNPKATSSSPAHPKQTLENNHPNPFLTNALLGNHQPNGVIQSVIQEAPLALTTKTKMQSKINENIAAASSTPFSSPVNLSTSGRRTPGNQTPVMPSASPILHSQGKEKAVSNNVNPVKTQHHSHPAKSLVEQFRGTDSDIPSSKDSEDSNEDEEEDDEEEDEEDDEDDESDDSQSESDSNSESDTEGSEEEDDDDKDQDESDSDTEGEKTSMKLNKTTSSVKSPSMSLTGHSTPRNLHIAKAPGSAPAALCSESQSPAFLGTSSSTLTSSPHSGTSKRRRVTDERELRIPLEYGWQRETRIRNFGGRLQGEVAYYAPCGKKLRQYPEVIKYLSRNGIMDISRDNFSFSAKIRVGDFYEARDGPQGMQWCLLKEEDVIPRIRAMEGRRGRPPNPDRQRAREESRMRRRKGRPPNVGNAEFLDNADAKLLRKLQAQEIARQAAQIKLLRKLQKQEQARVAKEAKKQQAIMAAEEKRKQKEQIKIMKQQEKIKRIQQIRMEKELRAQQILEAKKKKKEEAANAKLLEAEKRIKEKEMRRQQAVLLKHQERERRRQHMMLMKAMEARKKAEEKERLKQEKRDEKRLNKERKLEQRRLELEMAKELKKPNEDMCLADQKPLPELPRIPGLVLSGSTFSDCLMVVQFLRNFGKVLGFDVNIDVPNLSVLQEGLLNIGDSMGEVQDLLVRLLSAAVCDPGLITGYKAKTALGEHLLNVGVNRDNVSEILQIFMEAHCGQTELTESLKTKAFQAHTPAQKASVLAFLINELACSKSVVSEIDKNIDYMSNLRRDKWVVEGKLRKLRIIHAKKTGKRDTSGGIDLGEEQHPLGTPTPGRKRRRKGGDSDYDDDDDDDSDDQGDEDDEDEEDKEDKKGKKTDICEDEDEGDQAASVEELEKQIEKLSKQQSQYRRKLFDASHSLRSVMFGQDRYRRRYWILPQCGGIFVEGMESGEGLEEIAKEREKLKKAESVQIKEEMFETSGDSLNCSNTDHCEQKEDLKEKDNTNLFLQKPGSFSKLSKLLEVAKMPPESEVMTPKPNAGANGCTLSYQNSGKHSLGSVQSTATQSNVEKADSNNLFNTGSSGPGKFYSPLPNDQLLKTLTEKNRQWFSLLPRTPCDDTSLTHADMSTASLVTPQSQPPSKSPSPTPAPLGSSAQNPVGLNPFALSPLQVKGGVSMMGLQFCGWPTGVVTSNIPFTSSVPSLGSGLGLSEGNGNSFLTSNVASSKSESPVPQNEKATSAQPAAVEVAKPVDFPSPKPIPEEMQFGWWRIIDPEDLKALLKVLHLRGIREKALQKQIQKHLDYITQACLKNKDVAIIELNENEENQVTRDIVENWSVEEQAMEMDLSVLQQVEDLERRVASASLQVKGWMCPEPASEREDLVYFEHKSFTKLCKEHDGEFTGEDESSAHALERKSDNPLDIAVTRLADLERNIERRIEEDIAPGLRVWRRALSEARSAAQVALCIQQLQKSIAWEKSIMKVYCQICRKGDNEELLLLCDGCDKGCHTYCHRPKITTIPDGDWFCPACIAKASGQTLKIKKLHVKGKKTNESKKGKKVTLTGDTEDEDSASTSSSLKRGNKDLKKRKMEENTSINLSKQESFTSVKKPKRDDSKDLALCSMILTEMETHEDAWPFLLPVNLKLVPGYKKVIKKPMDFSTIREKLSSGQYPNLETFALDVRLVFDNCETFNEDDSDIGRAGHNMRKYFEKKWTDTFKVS

Row | Structure (SMILES) | Potency
1 | CN1CCCN(Cc2ccccc2Br)CC1 | inconclusive: 63.1 µM [inhibitor, single point]
2 | COc1ccc2c(CN(C)c3ccccc3)cc(=O)oc2c1 | inconclusive: 100 µM [inhibitor, single point]
3 | CC1(C)Cc2c(cnn2-c2ccccc2)C(=O)/C1=N\NC(=O)c1ccccc1O | inconclusive: 35.5 µM [inhibitor, partial curve]
4 | CCNC(=S)N(CCc1c(C)[nH]c2ccccc12)Cc1cccnc1 | inconclusive: 50.1 µM [inhibitor, partial curve]
5 | Cc1c(-c2ccccc2)cn2c1-c1ccc(C)n1CC2 | inconclusive: 89.1 µM [inhibitor, single point]
6 | CCC(Sc1nc2ccccc2c2nc(CCn3cncc3C)nn12)C(=O)Nc1cccc(OC)c1 (stereo not drawn) | inconclusive: 63.1 µM [inhibitor, partial curve, poor fit]
7 | CC1(C)CC(=O)C2=C(C1)NC1=C(C(=O)c3ccccc31)C2c1ccccc1 (stereo not drawn) | active: 31.6 µM
8 | O=C(NNc1nc(-c2ccc(Cl)cc2)cs1)c1ccco1 | inconclusive: 79.4 µM [inhibitor, single point]
9 | COc1ccc(C2=NN(C(=O)/C=C/c3ccccc3)C(c3ccccc3)C2)c(OC(C)=O)c1 (stereo not drawn) | inconclusive: 89.1 µM [inhibitor, single point]
10 | CCCN1C(=O)/C(=C/c2nc3ccccc3c(=O)[nH]2)c2ccccc21 | inconclusive: 50.1 µM [inhibitor, partial curve]
11 | Cc1cc(C)cc(C(=O)NCC(=O)OCC(=O)NCc2ccco2)c1 | inconclusive: 70.8 µM [inhibitor, single point]
12 | CCOC(=O)C1CCN(C(=O)Cn2c(=O)c3cccn3c3cccnc32)CC1 | inactive
13 | O=C(NCc1ccc2c(c1)OCO2)c1ccc2c(c1)OCCO2 | inconclusive: 89.1 µM [inhibitor, single point]
14 | COc1cc(C(CCN2CCOCC2)c2c(OC)cc(OC)c3c2OC(=O)CC3c2ccc(N(C)C)cc2)cc(OC)c1OC (stereo not drawn) | active: 14.1 µM
15 | Cc1cccc(N2CCN(CCCNC(=O)C3CCCN(c4ncnc5c4nc4n5CCCCC4)C3)CC2C)c1 (stereo not drawn) | inconclusive: 25.1 µM [inhibitor, full curve, poor fit]
16 | C=CCNc1nc(C(=O)OCC(=O)c2ccc(C)c([N+](=O)[O-])c2)cs1 | active: 50.1 µM
17 | Cc1nc(-c2cccc(NC(=O)Nc3ccc([N+](=O)[O-])cc3)c2)no1 | inconclusive: 20 µM [inhibitor, full curve]
18 | Cc1cc(C)nc(SCc2nnc(SCC(=O)Nc3ccccc3C)n2Cc2ccco2)n1 | inactive
19 | CCN(c1ccccc1)S(=O)(=O)c1cccc(C(=O)Nc2ccc(C)cn2)c1 | inactive
20 | O=C(O)c1cccnc1SCc1cn2cc(Br)ccc2n1 | inconclusive: 79.4 µM [inhibitor, single point]
21 | CCCc1cc(=O)oc2c3c(ccc12)OCN(Cc1ccc(OC)cc1)C3 | inactive
22 | CCc1ccc(C(=O)CSc2nc3ccccc3c(=O)[nH]2)cc1 | inactive
23 | O=C(O)c1cccc(-n2sc3ccccc3c2=O)c1 | active: 8.91 µM

Row | Structure (SMILES) | Potency
24 | COc1ccc(NS(=O)(=O)c2ccc(NC(=S)NCC3CCCO3)cc2)cc1 (stereo not drawn) | inactive
25 | C/C(=N\NC(=O)c1cc2ccccc2cc1O)c1ccc(C)o1 | inactive
26 | CCC(C(=O)NC1C(=O)N2C(C(=O)O)=C(CSc3nnc(C)s3)CSC12)c1ccccc1 (stereo not drawn) | inactive
27 | CC(=O)c1cccc(CN2CCC(C(=O)Nc3ccc(Oc4cccnc4)cc3)CC2)c1 | inconclusive: 3.98 µM [inhibitor, single point]
28 | CCCCC[C@]12Cc3cc(OC)c(OC)cc3C(O1)c1c(cc(C)n(-c3ccccc3)c1=O)O2 | active: 11.2 µM
29 | O=C(O)CCCNC(=O)CC1S/C(=N/N=C/c2ccccc2O)NC1=O (stereo not drawn) | active: 50.1 µM
30 | N/C(Cc1ccc([N+](=O)[O-])cc1)=N\OC(=O)c1ccc([N+](=O)[O-])cc1 | inconclusive: 39.8 µM [inhibitor, full curve, poor fit]
31 | CC(=O)N1CCCc2cc(S(=O)(=O)N3CCC(C(=O)NC4CCC(C)CC4)CC3)ccc21 (stereo not drawn) | inactive
32 | c1coc(-c2nc3ccccc3nc2-c2ccco2)c1 | active: 70.8 µM
33 | COc1ccccc1N1CCN(c2ccc([N+](=O)[O-])cc2Cl)CC1 | inconclusive: 7.94 µM [inhibitor, full curve]
34 | O=C(CN1CCN(S(=O)(=O)c2cc(C(F)(F)F)ccc2Cl)CC1)N1CCc2ccccc2C1 | inconclusive: 89.1 µM [inhibitor, single point]
35 | Cc1ccc2nc(SCC(=O)N3CCN(c4ccccc4)CC3)[nH]c2c1 | inconclusive: 79.4 µM [inhibitor, single point]
36 | Cc1ccsc1C(=O)N1CCCC(CO)(Cc2ccccc2)C1 (stereo not drawn) | inactive
37 | COc1cc2c(cc1OC)C(c1ccc(F)cc1)N(c1cccc(C#N)c1)C(=O)C2 (stereo not drawn) | inactive
38 | Cc1ccc2nc(N(CCCN(C)C)C(=O)c3ccc(S(=O)(=O)N4CCc5ccccc5C4)cc3)sc2c1 | inconclusive: 8.91 µM [inhibitor, partial curve]
39 | CCOc1ccc(C(=O)CCNC(Cc2cnc[nH]2)C(=O)O)cc1 (stereo not drawn) | active: 17.8 µM
40 | Cc1csc(C(C)N(C)C(=O)c2ccc(OC3CCN(Cc4ccccn4)CC3)cc2)n1 (stereo not drawn) | inconclusive: 79.4 µM [inhibitor, single point]
41 | N=C1/C(=C\c2ccc(-c3cccc(Cl)c3)o2)C(=O)N=C2SC=C(c3ccccc3)N12 | inconclusive: 79.4 µM [inhibitor, single point]
42 | COc1ccc([C@]23Cc4cc(C#N)ccc4C(O2)c2c(c4ccc(OC)cc4oc2=O)O3)cc1 | inconclusive: 14.1 µM [inhibitor, single point]
43 | CC1CCC/C(=C\Nc2ccc(C(=O)O)cc2)C1=O (stereo not drawn) | inactive
44 | O=[N+]([O-])c1ccc(O)c(C=Nc2ccc3oc(Cc4ccc(Cl)cc4)nc3c2)c1 | inconclusive: 39.8 µM [inhibitor, partial curve]
45 | COc1ccccc1N=Nc1c(C)[nH][nH]c1=O | inconclusive: 70.8 µM [inhibitor, single point]
46 | OC(COc1ccccc1)CN1CCN(C(c2ccccc2)c2ccccc2)CC1 (stereo not drawn) | inconclusive: 31.6 µM [inhibitor, full curve]

Row | Structure (SMILES) | Potency
47 | O=c1c2ccccc2cnn1Cc1n[nH]c(=S)n1-c1cc(Cl)cc(Cl)c1 | inactive
48 | CCOc1ccc(N(CC(=O)N2CCN(c3ccccc3OC)CC2)S(=O)(=O)c2ccc(C)cc2)cc1 | inconclusive: 79.4 µM [inhibitor, partial curve]
49 | O=C(O)c1ccc(Sc2ccccn2)c([N+](=O)[O-])c1 | inconclusive: 100 µM [inhibitor, partial curve]
50 | CCCc1cnc2c(c1SCC(=O)N1CCC(C)CC1)c(=O)n(C)c(=O)n2C | inactive
51 | CN(C)CCCCOc1ccc(F)cc1 | active: 79.4 µM
52 | CCc1nc(-c2ccccc2)cc(=O)[nH]1 | inactive
53 | OCCN1CCN(CC/C=C2/c3ccccc3Sc3ccc(C(F)(F)F)cc32)CC1 | inconclusive: 50.1 µM [inhibitor, partial curve]
54 | COc1ccc([C@]23Cc4ccccc4C(O2)c2c(cc(C)n(Cc4ccccc4)c2=O)O3)cc1 | inconclusive: 15.8 µM [inhibitor, single point]
55 | COc1cccc(CNS(=O)(=O)c2ccc(S(=O)(=O)N3CCCC3)cc2)c1 | inconclusive: 79.4 µM [inhibitor, single point]
56 | COc1cc(OC)cc(-n2nnnc2SCC(=O)Nc2nc3c(s2)CCCC3)c1 | inconclusive: 44.7 µM [inhibitor, partial curve]
57 | O=C(NC(NNc1ccc([N+](=O)[O-])cc1)(C(F)(F)F)C(F)(F)F)c1ccc(F)cc1 | inconclusive: 44.7 µM [inhibitor, partial curve]
58 | CCOC(=O)c1ccc(NC(=O)Cn2c(=O)cc(C)c3c(C)nn(-c4cccc(F)c4)c32)cc1 | inconclusive: 89.1 µM [inhibitor, single point]
59 | CCn1nc(NS(=O)(=O)c2ccccc2[N+](=O)[O-])c2cc3cccc(C)c3nc21 | inconclusive: 39.8 µM [inhibitor, partial curve]
60 | O=C(C1CCCN(c2ncnc3c2nc2n3CCCCC2)C1)N1CCN(c2ccccc2F)CC1 (stereo not drawn) | inconclusive: 44.7 µM [inhibitor, partial curve]
61 | Cc1cccc(OC(=O)n2c(=S)oc3cc(Cl)ccc32)c1 | inactive
62 | COC(=O)c1ccc(NC(=O)c2cccc(C)c2)cc1 | inconclusive: 89.1 µM [inhibitor, single point]
63 | O=[N+]([O-])c1cc(F)c(N2CCCCC2)cc1N1CCOCC1 | inconclusive: 39.8 µM [inhibitor, partial curve]
64 | COc1ccc(NC(=S)NCCc2c[nH]c3ccccc23)c(OC)c1 | active: 44.7 µM
65 | CC(C)c1nc(N2CCN(C(=O)c3ccco3)CC2)c(C#N)c2c1COC(C)(C)C2 | inconclusive: 89.1 µM [inhibitor, single point]
66 | COCCSc1nnc(NS(=O)(=O)c2ccccc2)s1 | inconclusive: 89.1 µM [inhibitor, single point]
67 | Cc1cc(/C=N/n2cnnc2)c(O)c([N+](=O)[O-])c1 | inconclusive: 89.1 µM [inhibitor, single point]
68 | CC1(C)Cc2ccccc2C(N/N=C/c2ccc(Cl)cc2)=N1 | inconclusive: 35.5 µM [inhibitor, full curve, poor fit]
